# Reference: the supplement of paper PMC8728848
# This is one part of the list.
# B1: 3FTT (Staphylococcus aureus), Q5HCZ5 (protein)
# chain: MTEKEKMLAEKWYDANFDQYLINERARAKDICFELNHTRPSATNKRKELIDQLFQTTTDNVSISIPFDTDYGWNVKLGKNVYVNTNCYFMDGGQITIGDNVFIGPNCGFYTATHPLNFHHRNEGFEKAGPIHIGSNTWFGGHVAVLPGVTIGEGSVIGAGSVVTKDIPPHSLAVGNPCKVVRKIDNDLPSETLNDETIK
# Assays:
# Experiment in all cases: glycan array binding signal (z-score within array); higher = stronger binding
# Settings in all cases: glycan notation: IUPAC condensed, linker removed
# [1] = molecular target: Neu5Ac(a2-3)[GalNAc(b1-4)]Gal(b1-4)Glc
# In short: (§1)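 From the Consortium for Functional Glycomics database, 3228 arrays were curated, keeping only those whose protein sequence was available. Binding is given as a within-array Z-score averaged across arrays sharing a protein sequence and across linkers. Negative Z-scores can be read as non-binding.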
# [2] = molecular target: Neu5Ac(a2-3)[GalNAc(b1-4)]Gal(b1-4)GlcNAc
# In short: as §1
# [3] = molecular target: Neu5Ac(a2-3)[GalNAc(b1-4)]Gal(b1-4)GlcNAc(b1-3)GalNAc
# In short: as §1
# [4] = molecular target: Neu5Ac(a2-3)[Neu5Ac(a2-6)]GalNAc
# In short: as §1
# Neu5Ac(a2-6)Gal = molecular target: Neu5Ac(a2-6)Gal
# In short: as §1
# [5] = molecular target: Neu5Ac(a2-6)Gal(b1-3)GlcNAc(b1-3)[Gal(b1-4)GlcNAc(b1-6)]Gal(b1-4)Glc
# In short: as §1
# Neu5Ac(a2-6)Gal(b1-4)Glc = molecular target: Neu5Ac(a2-6)Gal(b1-4)Glc
# In short: as §1
# [6] = molecular target: Neu5Ac(a2-6)Gal(b1-4)GlcNAc
# In short: as §1
# [7] = molecular target: Neu5Ac(a2-6)Gal(b1-4)GlcNAc(b1-2)Man(a1-3)Man(b1-4)GlcNAc(b1-4)GlcNAc
# In short: as §1
# [8] = molecular target: Neu5Ac(a2-6)Gal(b1-4)GlcNAc(b1-2)Man(a1-3)[Gal(b1-4)GlcNAc(b1-2)Man(a1-6)]Man(b1-4)GlcNAc(b1-4)GlcNAc
# In short: as §1
# [9] = molecular target: Neu5Ac(a2-6)Gal(b1-4)GlcNAc(b1-2)Man(a1-3)[GlcNAc(b1-2)Man(a1-6)]Man(b1-4)GlcNAc(b1-4)GlcNAc
# In short: as §1
# [10] = molecular target: Neu5Ac(a2-6)Gal(b1-4)GlcNAc(b1-2)Man(a1-3)[GlcNAc(b1-2)Man(b1-4)GlcNAc(b1-2)Man(a1-6)]Man(b1-4)GlcNAc(b1-4)GlcNAc
# In short: as §1
# [11] = molecular target: Neu5Ac(a2-6)Gal(b1-4)GlcNAc(b1-2)Man(a1-3)[Man(a1-6)]Man(b1-4)GlcNAc(b1-4)GlcNAc
# In short: as §1
# [12] = molecular target: Neu5Ac(a2-6)Gal(b1-4)GlcNAc(b1-2)Man(a1-3)[Neu5Ac(a2-6)Gal(b1-4)GlcNAc(b1-2)Man(a1-6)]Man(b1-4)GlcNAc(b1-4)GlcNAc
# In short: as §1
# [13] = molecular target: Neu5Ac(a2-6)Gal(b1-4)GlcNAc(b1-2)Man(a1-6)Man(b1-4)GlcNAc(b1-4)GlcNAc
# In short: as §1
# [14] = molecular target: Neu5Ac(a2-6)Gal(b1-4)GlcNAc(b1-2)Man(a1-6)[Gal(b1-4)GlcNAc(b1-2)Man(a1-3)]Man(b1-4)GlcNAc(b1-4)GlcNAc
# In short: as §1
# [15] = molecular target: Neu5Ac(a2-6)Gal(b1-4)GlcNAc(b1-2)Man(a1-6)[GlcNAc(b1-2)Man(a1-3)]Man(b1-4)GlcNAc(b1-4)GlcNAc
# In short: as §1
# [16] = molecular target: Neu5Ac(a2-6)Gal(b1-4)GlcNAc(b1-2)Man(a1-6)[Man(a1-3)]Man(b1-4)GlcNAc(b1-4)GlcNAc
# In short: as §1
# [17] = molecular target: Neu5Ac(a2-6)Gal(b1-4)GlcNAc(b1-3)Gal(b1-3)GlcNAc
# In short: as §1
# [18] = molecular target: Neu5Ac(a2-6)Gal(b1-4)GlcNAc(b1-3)Gal(b1-4)GlcNAc
# In short: as §1
# [19] = molecular target: Neu5Ac(a2-6)Gal(b1-4)GlcNAc(b1-3)Gal(b1-4)GlcNAc(b1-3)Gal(b1-4)GlcNAc
# In short: as §1
# [20] = molecular target: Neu5Ac(a2-6)Gal(b1-4)GlcNAc(b1-3)Gal(b1-4)[Fuc(a1-3)]GlcNAc(b1-3)Gal(b1-4)[Fuc(a1-3)]GlcNAc
# In short: as §1
# [21] = molecular target: Neu5Ac(a2-6)Gal(b1-4)GlcNAc(b1-3)GalNAc
# In short: as §1
# [22] = molecular target: Neu5Ac(a2-6)Gal(b1-4)GlcNAc6S
# In short: as §1
# Neu5Ac(a2-6)GalNAc = molecular target: Neu5Ac(a2-6)GalNAc
# In short: as §1
# [23] = molecular target: Neu5Ac(a2-6)GalNAc(b1-4)GlcNAc
# In short: as §1
# [24] = molecular target: Neu5Ac(a2-6)GlcNAc(b1-4)GlcNAc
# In short: as §1
# [25] = molecular target: Neu5Ac(a2-6)GlcNAc(b1-4)GlcNAc(b1-4)GlcNAc
# In short: as §1
# Neu5Ac(a2-8)Neu5Ac = molecular target: Neu5Ac(a2-8)Neu5Ac
# In short: as §1
# [26] = molecular target: Neu5Ac(a2-8)Neu5Ac(a2-3)Gal(b1-3)GalNAc(b1-4)[Neu5Ac(a2-8)Neu5Ac(a2-3)]Gal(b1-4)Glc
# In short: as §1
# [27] = molecular target: Neu5Ac(a2-8)Neu5Ac(a2-3)Gal(b1-4)Glc
# In short: as §1
# [28] = molecular target: Neu5Ac(a2-8)Neu5Ac(a2-3)[Gal(b1-3)GalNAc(b1-4)]Gal(b1-4)Glc
# In short: as §1
# [29] = molecular target: Neu5Ac(a2-8)Neu5Ac(a2-3)[GalNAc(b1-4)]Gal(b1-4)Glc
# In short: as §1
# [30] = molecular target: Neu5Ac(a2-8)Neu5Ac(a2-8)Neu5Ac
# In short: as §1
# [31] = molecular target: Neu5Ac(a2-8)Neu5Ac(a2-8)Neu5Ac(a2-3)Gal(b1-4)Glc
# In short: as §1
# [32] = molecular target: Neu5Ac(a2-8)Neu5Ac(a2-8)Neu5Ac(a2-3)[GalNAc(b1-4)]Gal(b1-4)Glc
# In short: as §1
# [33] = molecular target: Neu5Ac(a2-8)Neu5Ac(a2-8)Neu5Ac(a2-8)Neu5Ac(a2-3)[GalNAc(b1-4)]Gal(b1-4)Glc
# In short: as §1
# [34] = molecular target: Neu5Ac(b2-6)Gal(b1-4)GlcNAc
# In short: as §1
# Neu5Ac(b2-6)GalNAc = molecular target: Neu5Ac(b2-6)GalNAc
# In short: as §1
# [35] = molecular target: Neu5Ac9Ac(a2-3)Gal(b1-3)GlcNAc
# In short: as §1
# [36] = molecular target: Neu5Ac9Ac(a2-3)Gal(b1-4)GlcNAc
# In short: as §1
# [37] = molecular target: Neu5Ac9Ac(a2-6)Gal(b1-4)GlcNAc
# In short: as §1
# [38] = molecular target: Neu5Gc(a2-3)Gal(b1-3)GlcNAc
# In short: as §1
# [39] = molecular target: Neu5Gc(a2-3)Gal(b1-3)[Fuc(a1-4)]GlcNAc
# In short: as §1
# Neu5Gc(a2-3)Gal(b1-4)Glc = molecular target: Neu5Gc(a2-3)Gal(b1-4)Glc
# In short: as §1
# [40] = molecular target: Neu5Gc(a2-3)Gal(b1-4)GlcNAc
# In short: as §1
# [41] = molecular target: Neu5Gc(a2-3)Gal(b1-4)[Fuc(a1-3)]GlcNAc
# In short: as §1
# [42] = molecular target: Neu5Gc(a2-6)Gal(b1-4)GlcNAc
# In short: as §1
# Neu5Gc(a2-6)GalNAc = molecular target: Neu5Gc(a2-6)GalNAc
# In short: as §1
# [43] = molecular target: Neu5Gc(b2-6)Gal(b1-4)GlcNAc
# In short: as §1
binder,measurement,setting,value
B1,glycan array binding signal (z-score),[1],-0.16
same,glycan array binding signal (z-score),[2],-0.255
same,glycan array binding signal (z-score),[3],0.287
same,glycan array binding signal (z-score),[4],0.223
same,glycan array binding signal (z-score),Neu5Ac(a2-6)Gal,-0.155
same,glycan array binding signal (z-score),[5],-0.068
same,glycan array binding signal (z-score),Neu5Ac(a2-6)Gal(b1-4)Glc,-0.14
same,glycan array binding signal (z-score),[6],-0.134
same,glycan array binding signal (z-score),[7],0.1
same,glycan array binding signal (z-score),[8],-0.14
same,glycan array binding signal (z-score),[9],-0.034
same,glycan array binding signal (z-score),[10],0.045
same,glycan array binding signal (z-score),[11],-0.124
same,glycan array binding signal (z-score),[12],-0.133
same,glycan array binding signal (z-score),[13],0.215
same,glycan array binding signal (z-score),[14],-0.03
same,glycan array binding signal (z-score),[15],-0.162
same,glycan array binding signal (z-score),[16],-0.226
same,glycan array binding signal (z-score),[17],-0.076
same,glycan array binding signal (z-score),[18],0.055
same,glycan array binding signal (z-score),[19],0.007
same,glycan array binding signal (z-score),[20],-0.129
same,glycan array binding signal (z-score),[21],-0.283
same,glycan array binding signal (z-score),[22],-0.095
same,glycan array binding signal (z-score),Neu5Ac(a2-6)GalNAc,-0.035
same,glycan array binding signal (z-score),[23],-0.14
same,glycan array binding signal (z-score),[24],0.079
same,glycan array binding signal (z-score),[25],-0.123
same,glycan array binding signal (z-score),Neu5Ac(a2-8)Neu5Ac,0.034
same,glycan array binding signal (z-score),[26],0.117
same,glycan array binding signal (z-score),[27],-0.237
same,glycan array binding signal (z-score),[28],0.044
same,glycan array binding signal (z-score),[29],-0.099
same,glycan array binding signal (z-score),[30],-0.127
same,glycan array binding signal (z-score),[31],0.056
same,glycan array binding signal (z-score),[32],-0.275
same,glycan array binding signal (z-score),[33],0.128
same,glycan array binding signal (z-score),[34],-0.255
same,glycan array binding signal (z-score),Neu5Ac(b2-6)GalNAc,0.053
same,glycan array binding signal (z-score),[35],-0.153
same,glycan array binding signal (z-score),[36],0.081
same,glycan array binding signal (z-score),[37],-0.038
same,glycan array binding signal (z-score),[38],-0.371
same,glycan array binding signal (z-score),[39],-0.13
same,glycan array binding signal (z-score),Neu5Gc(a2-3)Gal(b1-4)Glc,-0.002
same,glycan array binding signal (z-score),[40],-0.145
same,glycan array binding signal (z-score),[41],-0.082
same,glycan array binding signal (z-score),[42],-0.283
same,glycan array binding signal (z-score),Neu5Gc(a2-6)GalNAc,-0.027
same,glycan array binding signal (z-score),[43],-0.181
